In the supplement of paper PMC4723716 one finds viability index data, which are given here for 87 compounds.

SMILES strings stand for the structures. The full ranking holds about 3,600 compounds; the median of “viability index relative to DMSO control” is about 0.81, and the lowest 2% start at about 0.13. The list shows a part of the results.
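Note: 384-well serum-free SaLSSA: MitoTracker Red CMXRos staining with saponin lysis, high-content imaging, treated-well particle count divided by plate-mean count of DMSO wells.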

This experiment has as its system Plasmodium falciparum NF54 stage V gametocytes. As to the kind of experiment: viability index relative to DMSO control (fraction); higher = less gametocyte killing. To be noted: 1.25 µM, incubation time: 72 h.
`O=C(O)c1cc([N+](=O)[O-])ccc1Oc1cncc(Cl)c1`: the viability index was 1.21.
Next, `CCOc1ccc(C=C2SC(=Nc3ccccc3)NC2=O)cc1OC`: 0.645.
Take `COC(=O)c1cn([C@H]2C[C@@H](C(=O)NCc3ccc(OC)cc3)N(Cc3ccsc3)C2)nn1`: the viability index was found to be 1.
Next, `COc1ccc(Nc2ccccc2NC(=O)c2cccc(N(C)C)c2)cc1`: 0.791.
Next, `Cc1cc(Nc2ccc(Cl)c(Cl)c2)n2ncnc2n1`: 0.71; `COc1ccc(NC(=O)c2cnn(-c3ccccc3)c2NC(=O)c2ccco2)cc1`: 0.846.
The compound `CCOC(=O)c1ccc(NC(=O)c2cc3ccccn3n2)cc1` gave a viability index of 0.917.
`Cn1nc(C(F)(F)F)c(-c2ccc(F)cc2)c1NC(=O)Nc1ccccc1` yielded a viability index of 0.647.
In turn, `Cc1cc(C)c(S(=O)(=O)N(C)CCCNc2ccnc3cc(Cl)ccc23)c(C)c1` displayed a viability index of 0.685.
For `CCCN(CCC)CCCNc1ccc(C(=O)Nc2ccc(C)c(F)c2)cc1[N+](=O)[O-]` the value was 0.988; for `CCCCCC1CCCc2c1[nH]c1cc(Cl)ccc1c2=O` (configuration not stated), 0.54; for `O=C(Nc1ccc2c3c(cccc13)CC2)c1cccc2ccccc12`, 0.743.
For `CN(C)CCNc1cc(-c2ccccc2)nc2ccccc12` the value was 0.909; for `Cc1ccc(S(=O)(=O)Nn2c(SCC(=O)NCCc3ccc(S(N)(=O)=O)cc3)nc3ccccc3c2=O)cc1`, 0.972.
Turning to `CC1=C(C(=O)OCC(C)C)C(c2ccc(OCc3ccccc3)cc2)C2=C(CC(c3ccccc3)CC2=O)N1` (configuration not stated), the viability index is 0.811.
For `CCOC(=O)c1cnc2ccccc2c1Nc1ccc(OC)c(OC)c1` the value was 0.93; for `Cc1cc(C)n(N=Cc2cccc(Cl)c2)c(=O)c1C#N`, 0.951.
Next, `O=C1CSc2ccccc2N1`: 0.863; `COc1ccc(CCN2C(=O)N(CCN(C)C)C(=O)C23CCN(Cc2ccc(O)cc2)CC3)cc1`: 1.12.
Regarding `O=C1c2ccccc2C2=Nc3ccccc3SC(c3ccccc3F)C12` (configuration not stated), the viability index was 0.753.
For `CC1CCCC(NC(=O)C2N(CCN3CCCCC3C)C(=O)C3C(C(=O)Nc4cccc(Cl)c4)C4C=CC32O4)C1C` (configuration not stated) the value was 1.02; for `CN1CCN(c2ccc(Nc3ccnc4cc(Cl)ccc34)cc2Cl)CC1`, 0.719.
In the case of `CCc1cccc(NS(=O)(=O)c2ccc3[nH]c(=O)c(=O)[nH]c3c2)c1`, the viability index is 0.763.
For `CCOC(=O)c1cnc2ccc(OCC)cc2c1NCCCN(CC)CC` the value was 0.827.
Next, `COc1ccc(-c2c[n+](CC(=O)c3ccc([N+](=O)[O-])cc3)c3n2CCC3)cc1`: 0.933; `COc1ccc(C(C)=NNc2nnc(C)c(O)n2)cc1`: 0.842; `COc1ccc(OC)c(CN2CCC3(CC2)CC3C(=O)NCCc2ccccc2OC)c1` (configuration not stated): 1.06.
Next, `COc1ccc(NC(=O)CCCCCn2c(SCc3cc(=O)oc4cc(O)ccc34)nc3ccsc3c2=O)cc1`: 0.925; `OC(Cn1cnc(-c2ccccc2)c1-c1ccccc1)Cn1c2ccc(Br)cc2c2cc(Br)ccc21` (configuration not stated): 0.494; `CC(=O)NC(CO)C(O)c1ccc([N+](=O)[O-])cc1` (configuration not stated): 0.992.
In turn, `CCc1ccc(CSc2nc3cc(OC)c(OC)cc3c(=N)n2CCc2ccccc2)cc1` displayed a viability index of 0.926.
For `O=C(Oc1ccc(N2C(=O)c3ccc([N+](=O)[O-])cc3C2=O)cc1)c1ccco1` the value was 0.888.
In turn, `CCNC(=S)NC1CC2CCCC(C1)N2CCc1ccccc1` (configuration not stated) displayed a viability index of 0.866.
`Cc1cccc(Nc2nc(NCc3ccco3)c3ccccc3n2)c1` came in with a viability index of 0.561.
Turning to `O=C1c2ccc(-c3nc(-c4ccccc4)[nH]c3-c3ccccc3)cc2-c2cc(-c3[nH]c(-c4ccccc4)nc3-c3ccccc3)ccc21`, the viability index came to 0.742.
Regarding `CC(=O)Nc1ccc(C2NC(=O)NC3=Nc4ccccc4SC(c4ccccc4)=C32)cc1` (configuration not stated), the viability index was 0.853.
For `Cc1cccc(N=C2NC(=O)C(=Cc3ccc(N(C)C)cc3)S2)c1` the value was 0.981.
For `COc1ccc(C(NC(=O)COc2ccccc2)c2cc(Cl)c3cccnc3c2O)cc1` (configuration not stated) the value was 0.873; for `O=C(Nc1nc(-c2ccccc2)cs1)c1ccccc1O`, 0.983.
For `O=C(Nc1cc(Cl)cc(Cl)c1)Nc1cccc(C(F)(F)F)c1`, the viability index amounted to 1.06.
On to `Cc1ccc(C2=NC(C(F)(F)F)(C(F)(F)F)N=C3C=CC(Cl)=CN32)cc1`, for which the viability index was found to be 1.21.
Next, `CCOC(=O)C1=NNC2C(=O)N(c3cccc(C)c3C)C(=O)C12` (configuration not stated): 0.909.
For `Cc1oc2c(c1C(=O)NCC1CCCO1)C(=O)c1ccccc1C2=O` (configuration not stated) the value was 0.195; for `Cc1cccc(N2C(=O)C3C(C2=O)C2(c4ccccc4)C(=O)C3(c3ccccc3)C(c3ccc4c(c3)OCO4)=C2c2ccc3c(c2)OCO3)c1` (configuration not stated), 0.958.
For `N#CC(=Cc1cn(Cc2ccccc2Cl)c2ccccc12)c1nn(CCO)c(N)c1C#N` the value was 0.517; for `Cc1ccc(-c2c3c(nc4sc(C(=O)Nc5ccc(Cl)cc5)c(N)c24)CCCC3)o1`, 1.01; for `Fc1ccccc1Nc1nc(NCC2CCCO2)c2ccccc2n1` (configuration not stated), 0.727.
`CCC(C)OC(=O)C1=C(C)NC2=C(C(=O)CC(c3ccc(Cl)cc3)C2)C1c1cccc(O)c1` (configuration not stated) had a viability index of 0.736.
Next, `COc1ccccc1NC(=O)c1cnn(-c2ccccc2)c1-n1cccc1`: 0.9; `CCN1C(=CC=Cc2oc3ccc(-c4ccccc4)cc3[n+]2CC)Oc2ccc(-c3ccccc3)cc21`: 0.238; `CCCCCCCCn1c(C)[n+](CC)c2cc(C(=O)OCC)ccc21`: 0.975.
Next, `CCc1nc2nc(C)cc(NCCc3cccc(C)c3)n2n1`: 0.855.
`CCN1C(=CC=Cc2n(CC)c3ccc(C#N)cc3[n+]2CC)Oc2ccc(-c3ccccc3)cc21` yielded a viability index of 0.472.
Next, `OC(CNCC1COc2ccccc2O1)c1ccccc1` (configuration not stated): 0.929; `COc1cc(C=C(C#N)c2nc3ccccc3[nH]2)ccc1OCc1ccccc1F`: 0.725; `CCN(CC)CCN1C(=O)c2ccccc2NC1c1ccc(N(C)C)cc1` (configuration not stated): 0.794.
Next, `Cc1ccc(N=C2SC(=Cc3c(Cl)cccc3Cl)C(=O)N2c2ccc(C)c(C)c2)cc1C`: 0.883; `Oc1ccc(-c2ccc(F)cc2)cc1CNC1CCCCC1`: 0.351; `CCOC(=O)N1CCN(C(=O)CSc2nc(-c3ccc(Cl)cc3)cn2-c2ccc(C)cc2)CC1`: 1.12.
For `c1cc2c(cc1Nc1c3c(nc4nncn14)CCC3)OCCO2` the value was 1.13; for `CSc1nc2nc(C)c(Cc3cccc(C(F)(F)F)c3)c(C)n2n1`, 0.785; for `CCCN1CCC(NC2CCCc3c2[nH]c2ccc([N+](=O)[O-])cc32)CC1` (configuration not stated), 0.853.
The compound `O=C1Nc2ccccc2C1=NN=Cc1ccc(-c2ccccc2[N+](=O)[O-])o1` showed a viability index of 0.859.
`Cc1cc(C)c(S(=O)(=O)N2CCC(NC(=O)c3ccccc3)CC2)c(C)c1` gave a viability index of 0.862.
`CC(=O)OC(OC(C)=O)C12C=CC(O1)C1C(=O)N(c3cccc(C)c3)C(=O)C12` (configuration not stated) registered a viability index of 1.22.
Consider `CCOc1cc2c(cc1OCC)C(c1ccc(O)c(Cl)c1)NCC2` (configuration not stated), for which the viability index was 0.905.
Next, `O=C1Nc2ccc(S(=O)(=O)Nc3ccc(NS(=O)(=O)c4ccc5c6c(cccc46)C(=O)N5)cc3)c3cccc1c23`: 0.788; `Clc1ccc2[nH]c3c(NCCC4=CCCCC4)ncnc3c2c1`: 0.758.
Next, `COc1c(C=NNc2nc(Nc3ccc([N+](=O)[O-])cc3)nc(N3CCN(C)CC3)n2)cccc1[N+](=O)[O-]`: 0.722; `CC(=O)N(C1=C(N(C)C)C(=O)c2ccccc2C1=O)c1ccc(Cl)c(Cl)c1`: 0.257; `CC(C)N(CC(=O)Nc1cc(C(C)(C)C)nn1-c1ccc(Cl)c(Cl)c1)C(=O)c1ccc2ccccc2c1`: 1.01.
Compound `Cc1cc2c(cc1C)N(C(=O)c1ccccc1)C(C)(C)c1ssc(=S)c1-2` had a viability index of 1.1.
For `Cc1oc2c(c1C(=O)NCCCn1ccnc1)C(=O)c1ccccc1C2=O` the value was 0.0826; for `O=C(c1ccc([N+](=O)[O-])cc1)c1ccc(N2CCOCC2)c([N+](=O)[O-])c1`, 1.09.
Compound `c1ccc(CCNc2ncnc3c2[nH]c2ccccc23)cc1` showed a viability index of 0.785.
`OC1(c2cccc3ccccc23)CCN(Cc2ccccc2)C1` (configuration not stated) came in with a viability index of 0.785.
Next, `O=c1cc(C(F)(F)F)c2cc(Cl)c(O)cc2o1`: 1; `CCOc1ccc(S(=O)(=O)c2cn(Cc3ccccc3C)c3ccc(OC)cc3c2=O)cc1`: 0.867.
For `CC1=[N+](CC(=O)c2ccc(C)cc2)CCn2c(C)ccc21` the value was 0.67; for `CCOC(=O)C(=O)N1c2ccc(OCC)cc2-c2c(ssc2=S)C1(C)C`, 0.751.
For the compound `CCOC(=O)c1sc(Nc2c(Cl)cc(S(N)(=O)=O)cc2Cl)nc1C`, the viability index amounted to 0.886.
For `CCC(CC)CN1CCC(O)(c2ccc3oc(C(=O)Nc4ccc(OC)cc4)cc3c2)CC1` the value was 1.01.
For `O=C(C1CCN(S(=O)(=O)c2cccc3nonc23)CC1)N1CCCc2ccccc21` the value was 0.823; for `Cc1ccc2[nH]c3c(NCCN(C(C)C)C(C)C)ncnc3c2c1`, 1.01; for `N#Cc1c(N)nc(SCC(=O)c2ccc(Br)cc2)c(C#N)c1-c1ccccc1`, 0.857.
Next, `COc1cc2c(cc1OC)C(COc1ccc(F)cc1)N(C(=O)c1ccc(OC(C)C)cc1)CC2` (configuration not stated): 0.66.
`COC(=O)C1=C(C)NC2=C(C(=O)CC(c3ccc(Cl)cc3)C2)C1c1ccccc1` (configuration not stated) registered a viability index of 0.762.
